The full ranking holds about 110,000 compounds; the median of “z-score” is about -0.1, and the highest 2% start at about 2. This is one part of the list. Activity calls are given as the source filed them.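 Rule for the calls: active = z-score in the third read window above 3 or below -3; inactive = the rest.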
target: Metabotropic glutamate receptor 8 (Rattus norvegicus) (UniProt P70579); experiment: rat mGluR8 modulators via GIRK flux, primary screen, cell-based, thallium flux, HTS (AID 488969); conditions: HEK293 rat mGluR8, GIRK (G protein-gated inwardly rectifying potassium channel) thallium flux, FluoZin2; at 10 µM; stronger effect = higher value; submaximal glutamate (EC20) added with thallium
Chain of UniProt P70579 (P70579 whole entry, looked up): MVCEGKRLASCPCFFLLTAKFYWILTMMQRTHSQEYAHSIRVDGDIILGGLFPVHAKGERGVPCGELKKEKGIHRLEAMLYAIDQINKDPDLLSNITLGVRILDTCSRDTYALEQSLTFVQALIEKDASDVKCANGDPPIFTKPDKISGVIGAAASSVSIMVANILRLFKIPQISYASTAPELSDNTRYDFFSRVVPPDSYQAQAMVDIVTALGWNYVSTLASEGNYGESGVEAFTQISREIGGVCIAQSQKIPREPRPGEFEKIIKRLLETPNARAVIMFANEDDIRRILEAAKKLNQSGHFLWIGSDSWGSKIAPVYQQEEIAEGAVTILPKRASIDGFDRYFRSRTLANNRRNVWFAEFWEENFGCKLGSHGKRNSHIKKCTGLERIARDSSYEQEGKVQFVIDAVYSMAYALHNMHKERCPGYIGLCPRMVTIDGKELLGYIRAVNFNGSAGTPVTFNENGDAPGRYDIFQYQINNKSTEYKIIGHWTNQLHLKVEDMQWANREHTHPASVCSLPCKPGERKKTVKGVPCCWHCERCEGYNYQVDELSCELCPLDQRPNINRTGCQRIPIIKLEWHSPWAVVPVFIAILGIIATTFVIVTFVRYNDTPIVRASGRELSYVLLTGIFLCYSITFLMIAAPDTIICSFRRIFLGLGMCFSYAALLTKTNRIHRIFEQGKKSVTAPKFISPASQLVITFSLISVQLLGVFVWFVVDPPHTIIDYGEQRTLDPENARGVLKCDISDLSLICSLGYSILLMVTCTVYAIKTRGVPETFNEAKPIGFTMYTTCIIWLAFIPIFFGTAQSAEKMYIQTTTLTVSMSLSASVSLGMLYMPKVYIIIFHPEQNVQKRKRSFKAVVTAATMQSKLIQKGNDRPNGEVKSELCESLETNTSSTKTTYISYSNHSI

Row | SMILES | z-score
1 | CCCCOc1cccc(C(=O)NC(=S)Nc2cccc(NC(=O)c3ccccc3Cl)c2)c1 | -0.0458
2 | COc1ccc(N(Cc2cc3cccc(C)c3[nH]c2=O)S(C)(=O)=O)cc1 | 1.91
3 | CCc1nnc2n1N=C(c1ccc(-c3ccc(Cl)cc3Cl)o1)CS2 | 0.592
4 | O=C(CN1CCCCC1)N1c2ccccc2CCc2ccccc21 | -0.0448
5 | O=C(CSc1nnc(-c2ccccc2)n1-c1ccc(Cl)cc1)N/N=C/c1ccco1 | -0.556
6 | CCCCCCC12CCC(C(=O)O)(CC1)CC2 | 1.87
7 | COCCNC(=S)Nc1ccc2nc(N3CCCC3)cc(C)c2c1 | -0.039
8 | COCCCn1c(SCC(=O)OC2CCCCC2)nnc1-c1ccco1 | 0.0242
9 | O=C(C1CCC(C(=O)N2CCCC2)CC1)N1CCCC1 (stereo not given) | -1.33
10 | COc1cc2[nH]c(=O)n(Cc3ccc(C(=O)NCCCN4CCC(C)CC4)cc3)c(=O)c2cc1OC | -0.618
11 | COc1ccccc1Nc1ncnc2c1oc1ccccc12 | -1.15
12 | COC(=O)[C@H](Cc1ccccc1)NC(=O)NCc1cccs1 | -0.162
13 | CCOCCn1c(SCc2ccc(C)cc2)nc2c1c(=O)[nH]c(=O)n2C | -0.31
14 | CC1CC(Nc2ccccc2)c2ccccc2N1C(=O)c1cccnc1 (stereo not given) | -0.223
15 | Cc1ccc(NC(=O)c2ccc(CSc3nnnn3C)cc2)cc1 | -0.174
16 | COC(=O)c1ccc(CSc2nc3c(cnn3-c3ccc(C)c(C)c3)c(=O)[nH]2)o1 | -0.0305
17 | Cc1cccc(NC(=O)CSc2cc(C(=O)c3nccn3C)c3ccccc3n2)c1 | 0.179
18 | Cc1ccsc1/C=N/NC(=O)c1ccccn1 | -0.122
19 | CSCCC(NS(=O)(=O)c1ccc(Cl)cc1)C(=O)OCC(=O)NC1CC1 (stereo not given) | -0.00636
20 | CCN(CC#CCC1(O)c2ccccc2-c2ccccc21)C(C)C | -0.295
21 | COc1ccccc1NS(=O)(=O)c1cccc(N2CC(O)=C(c3ccccc3)C2=N)c1 | -0.244
22 | CCOC(=O)Nc1ccc2c(c1)nc(CN1CCOCC1)n2C | 0.195
23 | COc1ccc(Nc2nc(-c3cccc([N+](=O)[O-])c3)nc3ccccc23)cc1 | active: -3.34
24 | CC(C)CN(C(=O)COC(=O)c1ccc2c(c1)NC(=O)CS2)C1CCS(=O)(=O)C1 (stereo not given) | 0.393
25 | COC(=O)C(=NNc1c(C)n(C)n(-c2ccccc2)c1=O)C(=O)OC | -0.184
26 | CCCC1(C)Nc2ccccc2-c2nc3ccccc3n21 (stereo not given) | -0.758
27 | COc1cccc(N(CC(=O)N2CCc3ccccc3C2)S(C)(=O)=O)c1 | -0.256
28 | O=C(NCCCN1CCN(c2cccc(Cl)c2)CC1)c1nc(-c2ccncc2)no1 | -0.287

Row | SMILES | z-score
29 | CC(=O)c1cc(-c2ccccc2)n(CCC(=O)NC2CCC(C)CC2)c1C (stereo not given) | 0.0693
30 | N#C/C(=C\c1ccc(Cl)cc1)c1n[nH]c(Cn2cncn2)n1 | -1.21
31 | O=c1c2c(n3cnnc3n1-c1ccccc1)-c1ccccc1CC21CCCCC1 | -0.501
32 | Cc1cccc(Nc2nc(-c3ccccn3)cs2)n1 | 0.446
33 | CCOC(=O)C1CCN(S(=O)(=O)c2cccc(-c3cn4cccc(C)c4n3)c2)CC1 | -0.994
34 | COc1cccc(C2c3c(-c4cc(Cl)c(C)cc4O)n[nH]c3C(=O)N2Cc2cccnc2)c1 (stereo not given) | -0.418
35 | O=C(CSc1nncn1-c1ccccc1)Nc1cccc(S(=O)(=O)N2CCCCC2)c1 | 0.383
36 | CN1C(=O)CC(N2CCC(C(N)=O)CC2)C1=O (stereo not given) | 0.151
37 | Cc1ccc2c(c1)NC(=O)C(CC(=O)NCCN(C)C)O2 (stereo not given) | -0.679
38 | Cc1ccc(S(=O)(=O)/C(C#N)=C/c2ccccc2OCc2ccccc2)cc1 | -0.136
39 | COc1ccc2nc(SCc3cccc(C)c3)nc(C)c2c1 | -0.294
40 | O=C(/C=C/N1CCOCC1)c1cc2ccccc2o1 | 0.525
41 | COc1ccc(/C=C2\SC(c3ccc(C)cc3)=NC2=O)cc1OC | -1.87
42 | O=C(Nc1nnc(CC(=O)N2CCOCC2)s1)C1COc2ccccc2O1 (stereo not given) | 0.28
43 | O=C(Nc1cccc(Cl)c1)N1CCN(Cc2ccccc2)CC1 | -0.785
44 | O=C1CCCN1CCCNc1ccc(S(=O)(=O)N2CCCCC2)cn1 | 0.742
45 | COc1ccccc1Oc1ccc2c(c1)C(=O)N(c1ccc(C)cc1)C2=O | 0.146
46 | COc1ccc(Cc2nc(-c3cccc(C)c3)no2)cc1 | 0.0701
47 | CC(/C=C/c1ccccc1)=N/NC(=O)C(O)c1ccccc1 (stereo not given) | -0.14
48 | CC[n+]1c(/C=C/N(C)c2ccccc2)oc2ccc(F)cc21 | -0.81
49 | C=CCSc1nnc(-c2ccccc2NC(C)=O)c(=O)[nH]1 | -0.905
50 | O=C(Nc1ncc2c(n1)-c1ccccc1OC2)c1ccccc1Cl | -0.113
51 | CCOC(=O)c1ccc(NC(=O)COc2ccc(-n3cnnn3)cc2)cc1 | -0.00131
52 | CC(C)c1cc[n+](-c2nc([O-])sc2C=O)cc1 | -0.0395
53 | O=C1CC(=C2c3ccccc3-c3ccccc32)C(=O)N1CCN1CCN(c2ccccc2)CC1 | 0.0773
54 | C=C(C)Cn1c(SCC)nc2ccccc2c1=O | -0.756
55 | O=C1Cc2ccccc2Sc2ccc(Cl)cc21 | -0.097

From PubChem BioAssay AID488969 (Vanderbilt High Throughput Screening Facility, 2010)
